Reference: patent publication US20170081412A1 (MITSUBISHI TANABE PHARMA, published 2017)

T1: recombinant human IL-6R (human, UniProt P08887 20-365)
T1 construct: The sandwich ELISA used a His-tagged form; also called soluble IL-6R; His-tagged human IL-6R
T1 sequence: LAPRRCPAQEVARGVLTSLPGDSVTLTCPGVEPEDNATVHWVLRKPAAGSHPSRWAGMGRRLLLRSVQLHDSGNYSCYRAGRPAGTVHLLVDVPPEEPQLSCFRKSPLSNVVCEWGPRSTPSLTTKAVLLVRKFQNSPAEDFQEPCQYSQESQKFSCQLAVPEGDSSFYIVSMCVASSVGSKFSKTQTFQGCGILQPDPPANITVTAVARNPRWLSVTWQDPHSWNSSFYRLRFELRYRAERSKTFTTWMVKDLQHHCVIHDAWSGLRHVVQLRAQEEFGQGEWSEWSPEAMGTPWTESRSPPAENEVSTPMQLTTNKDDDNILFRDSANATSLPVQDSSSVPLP

T2: human IL-6R on the surface of HEK Blue IL-6 cells (human, UniProt P08887 20-468)
T2 construct: HEK Blue IL-6 cells (Invivogen); also called cell surface IL-6R; HEK-Blue-IL6 cells (IL6R+)
T2 sequence: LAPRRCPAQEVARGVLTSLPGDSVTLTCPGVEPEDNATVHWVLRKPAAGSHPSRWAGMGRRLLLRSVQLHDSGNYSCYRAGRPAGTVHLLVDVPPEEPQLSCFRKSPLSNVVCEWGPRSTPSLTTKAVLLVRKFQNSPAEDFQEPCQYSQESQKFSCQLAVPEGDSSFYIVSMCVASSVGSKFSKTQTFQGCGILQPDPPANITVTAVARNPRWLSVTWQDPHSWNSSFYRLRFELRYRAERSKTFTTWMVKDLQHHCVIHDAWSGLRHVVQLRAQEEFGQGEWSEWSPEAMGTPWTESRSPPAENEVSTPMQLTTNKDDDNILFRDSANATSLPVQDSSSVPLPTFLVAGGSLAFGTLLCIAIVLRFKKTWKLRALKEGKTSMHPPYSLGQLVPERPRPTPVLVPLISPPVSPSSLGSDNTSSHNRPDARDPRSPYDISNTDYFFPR


Key:
recombinant human IL-17A [1] = biological target: T3, recombinant human IL-17A (human, UniProt Q16552 24-155, limits assumed); experiment: cell-based or functional assay
recombinant human IL-6R [2] = biological target: T1, recombinant human IL-6R; experiment: SPR, binder captured by anti-human antibody on GLM chip, IL-6R as analyte; average of 2 experiments
Excerpt: (§1) To determine the affinity and kinetic parameters of FynomAb binding to human IL-17A and human IL-6R, an anti-human antibody was amine coupled to a GLM chip.

recombinant human IL-17A [3] = biological target: T3, recombinant human IL-17A; experiment: SPR, binder captured by anti-human antibody on GLM chip, IL-17A as analyte; average of 2 experiments
Excerpt: as §1

[4] = biological target: T2, human IL-6R on the surface of HEK Blue …; experiment: flow cytometry: HEK-Blue IL-6 cells (IL-6R+), drug titrated about 0.005-300 nM, detected with anti-human IgG-Alexa488
recombinant human IL-6R [5] = biological target: T1, recombinant human IL-6R; experiment: SPR, binder captured by anti-human antibody on GLM chip, IL-6R as analyte; average of 2 experiments; column head prints nM, value taken as M
Excerpt: as §1

recombinant human IL-17A [6] = biological target: T3, recombinant human IL-17A; experiment: SPR, binder captured by anti-human antibody on GLM chip, IL-17A as analyte; average of 2 experiments; column head prints nM, value taken as M
Excerpt: as §1

recombinant human IL-17A [7] = biological target: T3, recombinant human IL-17A; experiment: dual-binding sandwich ELISA: human IL-17A coated, FynomAb titrated 50-0.0032 nM in PBS (day 0), His-tagged human IL-6R added, anti-His-HRP
recombinant human IL-6R [8] = biological target: T1, recombinant human IL-6R; experiment: SPR (representative sensorgram with fit): antibody captured on an amine-coupled anti-human antibody (GLM chip), recombinant human IL-6R flowed as analyte
Excerpt: as §1

recombinant human IL-17A [9] = biological target: T3, recombinant human IL-17A; experiment: SPR (representative sensorgram with fit): antibody captured on an amine-coupled anti-human antibody (GLM chip), recombinant human IL-17A flowed as analyte
Excerpt: as §1

[10] = biological target: T2, human IL-6R on the surface of HEK Blue …; experiment: flow cytometry, simultaneous binding: drug titrated on HEK-Blue IL-6 cells (IL-6R+), cell-bound drug detected with biotinylated IL-17A and streptavidin-APC
[11] = biological target: T2, human IL-6R on the surface of HEK Blue …; experiment: flow cytometry: HEK-Blue IL-6 cells (IL-6R+), drug titrated about 0.005-300 nM, detected with anti-human IgG-Alexa488; remark: listed apart in the source
recombinant human IL-17A [12] = biological target: T3, recombinant human IL-17A; experiment: dual-binding sandwich ELISA: human IL-17A coated, FynomAb titrated 50-0.0032 nM in PBS (day 0), His-tagged human IL-6R added, anti-His-HRP; remark: listed apart in the source
[13] = biological target: T2, human IL-6R on the surface of HEK Blue …; experiment: flow cytometry, simultaneous binding: drug titrated on HEK-Blue IL-6 cells (IL-6R+), cell-bound drug detected with biotinylated IL-17A and streptavidin-APC; remark: listed apart in the source
recombinant human IL-6R [14] = biological target: T1, recombinant human IL-6R; experiment: SPR, binder captured by anti-human antibody on GLM chip, IL-6R as analyte; average of 4 experiments
Excerpt: as §1

recombinant human IL-17A [15] = biological target: T3, recombinant human IL-17A; experiment: SPR, binder captured by anti-human antibody on GLM chip, IL-17A as analyte; average of 5 experiments
Excerpt: as §1

recombinant human IL-6R [16] = biological target: T1, recombinant human IL-6R; experiment: SPR, binder captured by anti-human antibody on GLM chip, IL-6R as analyte; average of 4 experiments; column head prints nM, value taken as M
Excerpt: as §1

recombinant human IL-17A [17] = biological target: T3, recombinant human IL-17A; experiment: SPR, binder captured by anti-human antibody on GLM chip, IL-17A as analyte; average of 5 experiments; column head prints nM, value taken as M
Excerpt: as §1

recombinant human IL-17A [18] = biological target: T3, recombinant human IL-17A; experiment: dual-binding sandwich ELISA: human IL-17A coated, FynomAb titrated 50-0.0032 nM in PBS (day 0), His-tagged human IL-6R added, anti-His-HRP; remark: listed apart in the source

T3 sequence (Q16552 24-155 limits assumed): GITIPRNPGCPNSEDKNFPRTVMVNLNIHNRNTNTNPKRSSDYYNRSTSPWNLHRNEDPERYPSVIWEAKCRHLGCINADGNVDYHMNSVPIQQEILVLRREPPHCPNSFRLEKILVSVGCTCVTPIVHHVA

Row | Binder | LogIC50, IL-17A-induced GROα release by HT-29 cells, FIG. 8D (stable CHO pool, mouse PK lot) (recombinant human IL-17A [1]) | koff (recombinant human IL-6R [2]) | kon (recombinant human IL-6R [2]) | koff (recombinant human IL-17A [3]) | kon (recombinant human IL-17A [3]) | Kd (recombinant human IL-6R [5]) | Kd (recombinant human IL-17A [6]) | Kd (recombinant human IL-6R [8]) | koff (recombinant human IL-6R [8]) | kon (recombinant human IL-6R [8]) | Kd (recombinant human IL-17A [9]) | koff (recombinant human IL-17A [9]) | kon (recombinant human IL-17A [9]) | other results
1 | COVA807 (bispecific antibody, human IgG1, kappa, made in CHO cells; also called 807 in-house) heavy: QVQLQESGPGLVRPSQTLSLTCTVSGYSITSDHAWSWVRQPPGRGLEWIGYISYSGITTYNPSLKSRVTMLRDTSKNQFSLRLSSVTAADTAVYYCARSLARTTAMDYWGQGSLVTVSSASTKGPSVFPLAPSSKSTSGGTAALGCLVKDYFPEPVTVSWNSGALTSGVHTFPAVLQSSGLYSLSSVVTVPSSSLGTQTYICNVNHKPSNTKVDKKV[sequence of human IgG1 Fc omitted]GGGSGGGGSGGGGSGVTLFVALYDYSSRGVLDLSFHKGEKFQILSTHEYEDWWEARSLTTGETGYIPSNYVAPVDSIQ light: DIQMTQSPSSLSASVGDRVTITCRASQDISSYLNWYQQKPGKAPKLLIYYTSRLHSGVPSRFSGSGSGTDFTFTISSLQPEDIATYYCQQGNTLPYTFGQGTKVEIKRTVAAPSVFIFPPSDEQLKSGTASVVCLLNNFYPREAKVQWKVDNALQSGNSQESVTEQDSKDSTYSLSSTLTLSKADYEKHKVYACEVTHQGLSSPVTKSFNRGEC | 0.644 | 0.000189 s⁻¹ | 692000 M⁻¹ s⁻¹ | 9.66e-05 s⁻¹ | 4.34e+06 M⁻¹ s⁻¹ | 307 pM | 22.3 pM | 415 pM | 0.000197 s⁻¹ | 476000 M⁻¹ s⁻¹ | 22.3 pM | 0.000108 s⁻¹ | 4.84e+06 M⁻¹ s⁻¹ | EC50 (read off the curve) [4]: ~1000 pM; EC50 (read off the curve) (recombinant human IL-17A [7]): ~2000 pM; EC50 (read off the curve) [10]: ~1000 pM
2 | COVA805 (bispecific antibody, human IgG1, kappa, made in CHO cells; also called 805 in-house) heavy: QVQLQESGPGLVRPSQTLSLTCTVSGYSITSDHAWSWVRQPPGRGLEWIGYISYSGITTYNPSLKSRVTMLRDTSKNQFSLRLSSVTAADTAVYYCARSLARTTAMDYWGQGSLVTVSSASTKGPSVFPLAPSSKSTSGGTAALGCLVKDYFPEPVTVSWNSGALTSGVHTFPAVLQSSGLYSLSSVVTVPSSSLGTQTYICNVNHKPSNTKVDKKV[sequence of human IgG1 Fc omitted]GGGSGGGGSGGGGSGVTLFVALYDYESVSWSDLSFHKGEKFQILSTHEYEDWWEARSLTTGETGYIPSNYVAPVDSIQ light: DIQMTQSPSSLSASVGDRVTITCRASQDISSYLNWYQQKPGKAPKLLIYYTSRLHSGVPSRFSGSGSGTDFTFTISSLQPEDIATYYCQQGNTLPYTFGQGTKVEIKRTVAAPSVFIFPPSDEQLKSGTASVVCLLNNFYPREAKVQWKVDNALQSGNSQESVTEQDSKDSTYSLSSTLTLSKADYEKHKVYACEVTHQGLSSPVTKSFNRGEC | – | 0.000178 s⁻¹ | 613000 M⁻¹ s⁻¹ | 0.000581 s⁻¹ | 3.53e+06 M⁻¹ s⁻¹ | 314 pM | 143 pM | 419 pM | 0.000198 s⁻¹ | 474000 M⁻¹ s⁻¹ | 278 pM | 0.00114 s⁻¹ | 4.09e+06 M⁻¹ s⁻¹ | LogIC50, IL-17A-induced GROα release by HT-29 cells, FIG. 8C (stable CHO pool, mouse PK lot) (recombinant human IL-17A [1]): 0.28; EC50 (read off the curve) [11]: ~700 pM; EC50 (read off the curve) (recombinant human IL-17A [12]): ~2000 pM; EC50 (read off the curve) [13]: ~600 pM
3 | COVA808 (bispecific antibody, human IgG1, kappa, made in CHO cells) heavy: QVQLQESGPGLVRPSQTLSLTCTVSGYSITSDHAWSWVRQPPGRGLEWIGYISYSGITTYNPSLKSRVTMLRDTSKNQFSLRLSSVTAADTAVYYCARSLARTTAMDYWGQGSLVTVSS[sequence of human IgG1 constant region omitted] light: DIQMTQSPSSLSASVGDRVTITCRASQDISSYLNWYQQKPGKAPKLLIYYTSRLHSGVPSRFSGSGSGTDFTFTISSLQPEDIATYYCQQGNTLPYTFGQGTKVEIKRTVAAPSVFIFPPSDEQLKSGTASVVCLLNNFYPREAKVQWKVDNALQSGNSQESVTEQDSKDSTYSLSSTLTLSKADYEKHKVYACEVTHQGLSSPVTKSFNRGECGGGGSGGGGSGGGGSGVTLFVALYDYSSRGVLDLSFHKGEKFQILSTHEYEDWWEARSLTTGETGYIPSNYVAPVDSIQ | 0.406 | – | – | – | – | – | – | – | – | – | 57.5 pM | 0.00013 s⁻¹ | 2.26e+06 M⁻¹ s⁻¹ | koff (recombinant human IL-6R [14]): 0.00017 s⁻¹; kon (recombinant human IL-6R [14]): 425000 M⁻¹ s⁻¹; koff (recombinant human IL-17A [15]): 7.97e-05 s⁻¹; kon (recombinant human IL-17A [15]): 2.95e+06 M⁻¹ s⁻¹; Kd (recombinant human IL-6R [16]): 546 pM; Kd (recombinant human IL-17A [17]): 31.1 pM; EC50 (read off the curve) (recombinant human IL-17A [18]): ~2000 pM

Read-outs that look alike come from different tables or passages of the source.
